From PubChem BioAssay AID1346428 (National Center for Advancing Translational Sciences (NCATS), 2018) come the findings set out here.

SMILES strings stand for the structures. Where “and” joins values, the source holds several entries; their conditions need not be identical. Equal values may be shown once. Out of some 48,000 compounds screened, about 1,200 (2.5%) were called active. About 2% were inconclusive and are not listed.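 Rule for the calls: active = activation of at least 60% and not above a set upper limit (about 1 call in 100 departs from these limits); inconclusive = activation of 40% to 60%, or above that upper limit; inactive = activation under 40%.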 Some of the results follow.

Sequence of UniProt O75388 (O75388 whole entry, looked up): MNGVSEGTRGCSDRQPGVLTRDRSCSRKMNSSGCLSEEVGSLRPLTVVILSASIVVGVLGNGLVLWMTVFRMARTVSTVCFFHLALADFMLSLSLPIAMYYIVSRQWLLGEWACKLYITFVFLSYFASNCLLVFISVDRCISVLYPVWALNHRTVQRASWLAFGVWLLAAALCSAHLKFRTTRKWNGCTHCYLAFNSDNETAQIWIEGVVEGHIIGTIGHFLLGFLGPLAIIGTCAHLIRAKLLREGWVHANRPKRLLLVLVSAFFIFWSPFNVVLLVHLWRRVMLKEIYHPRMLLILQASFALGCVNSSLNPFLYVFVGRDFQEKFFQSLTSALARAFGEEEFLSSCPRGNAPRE

The experiment has as its target Probable G-protein coupled receptor 32 (Homo sapiens) (UniProt O75388). The experiment is described as follows: qHTS for Agonists of Human Resolvin D1 Receptor DRV1. Note: 0% is about no effect. Conditions: CHO-K1 GPR32 beta-arrestin PathHunter luminescence, 90 min; at 76.9 µM; hits give high values; zero percent set by DMSO-only wells. Put shortly:
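Luminescent readout of beta-Gal complementation quantifies ligand-induced beta-arrestin association with GPR32 in CHO-K1 cells; 90 min compound incubation at 37 °C, detection 1 h at room temperature.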
In the case of `C[C@@H]1C[C@H]2[C@@H]3C[C@H](F)C4=CC(=O)C=C[C@]4(C)[C@@]3(F)[C@@H](O)C[C@]2(C)[C@@]1(O)C(=O)CO`, the activation was inactive: 49.5%.

For the compound `COC(=O)c1ccc(OCC2c3cc(OC)c(OC)cc3CCN2C(=O)COc2ccc(Cl)cc2)cc1` (stereo unspecified), the activation is inactive: -0.986%.

On to `O=C(c1ccccc1Cl)N1c2ncnn2C2(CCCCC2)[C@@H]2CCCC[C@@H]21`, for which the activation is inactive: -10.7%.

Consider `CCOC(=O)c1c(S(=O)(=O)N2CCCC(C(=O)NCc3ccc(Cl)cc3)C2)c(C)n(C)c1C` (stereo unspecified), for which the activation was inactive: -2.25%.

As for `COc1ccc(F)cc1S(=O)(=O)NCCc1csc2nc(-c3cccc(C)c3)nn12`, the activation was inactive: -16.9%.

Consider `CCOc1cc(-c2nnc(SCC(=O)Nc3ccc(F)c(F)c3)nc2-c2ccc(OC)c(OCC)c2)ccc1OC`, for which the activation was inactive: 9.43%.

For `COc1ccc(S(=O)(=O)N(CCc2ccccc2)CC(=O)Nc2ccc(C)c(C)c2)cc1OC`, the activation was inactive: -4.94%.

For `CCC(=O)Nc1nnc(SCc2cc(=O)c3cc(C)ccc3[nH]2)s1`, the activation was inactive: 32.3%.

As for `O=C(Nc1cccc(-c2nc3ccccc3o2)c1)c1ccc(-c2ccc(Br)cc2)o1`, the activation was inactive: 4.21%.

Take `O=S(=O)(Nc1ccc(-c2ccc(N3CCCC3)nn2)cc1)c1ccc(Cl)cc1`: the activation was inactive: 13.1%.

On to `Cc1c(C(=O)OC2CCCC2)[nH]c2c1C(=O)CC(c1ccc(Cl)cc1)C2` (stereo unspecified), for which the activation is inactive: -6.19%.

In the case of `CCOc1ccc(CNS(=O)(=O)c2c(C(=O)N3CCC(C)CC3)c(C)n(C)c2C)cc1OC`, the activation was inactive: -21.4%.

As for `CC(=O)N1CCc2c(sc3c2c(=O)n(-c2ccccc2)c(=O)n3CC(=O)Nc2cccc(C)c2)C1`, the activation was inactive: -10.5%.

On to `CC(C)N(C(=O)CSc1nc2ccc(Cl)cc2[nH]1)c1ccccc1`, for which the activation is inactive: -27.8%.

`COc1ccccc1CNC(=O)CCCc1nnc2n(CC(C)C)c(=O)c3sccc3n12`: the activation was inactive: -0.591%.

In the case of `COc1ccccc1CNC(=O)CCC1N=C2c3ccccc3N=C(SCc3cccc(Cl)c3)N2C1=O` (stereo unspecified), the activation was inactive: -11.1%.

Turning to `COc1ccc(-c2cc3nc(-c4ccc(C)cc4)cc(C(F)(F)F)n3n2)cc1`, the activation is inactive: 0.57%.

Turning to `CCOc1ccc(OCC)c(NS(=O)(=O)c2cc(Br)cc3c2N(C(C)=O)C(C)C3)c1` (stereo unspecified), the activation was inactive: -12.3%.

For the compound `CC(C)CN(CCCNC(=O)Cn1ncc2c3ccccc3n(C)c2c1=O)CC(C)C`, the activation was inactive: -1.17%.

For `COc1ccc(Cl)cc1NC(=O)CCS(=O)(=O)c1nc(-c2cccs2)cc(C(F)(F)F)n1`, the activation was inactive: -46.9%.

On to `CCOC(=O)c1ccc(NC(=O)Nc2c[nH]c(=O)[nH]c2=O)cc1`, for which the activation is inactive: 8.65%.

On to `Cc1ccc(CNC(=O)c2cc3c(s2)-c2ccccc2SC3)cc1`, for which the activation is inactive: -15.2%.

Turning to `CCOC(=O)c1cc(-c2ccccc2)n(CC(=O)NC(C)c2ccccc2)c1C` (stereo unspecified), the activation was inactive: 43.3%.

Consider `CC(C)COc1ccc(C(=O)Nc2cccc(-c3nc4ccccc4[nH]3)c2)cc1`, for which the activation is inactive: 13.7%.

Take `Cc1cc(C)cc(NC(=O)CCS(=O)(=O)c2cc3c4c(c2)CCN4C(=O)CC3)c1`: the activation was inactive: -16.9%.

Turning to `CCc1ccc(OC(C)C(=O)N2CCC(c3nc4ccccc4s3)CC2)cc1` (stereo unspecified), the activation is inactive: 29.4%.

`CCn1cc(C(=O)N2CCN(c3cccc(C(F)(F)F)c3)CC2)c2cc(OC)c(OC)cc2c1=O`: the activation was inactive: 18.1%.

As to `O=C(NC1(C(F)(F)F)C(=O)Nc2c1c(=O)[nH]c(=O)n2CCc1ccccc1)c1ccc(Cl)cc1Cl` (stereo unspecified), the activation was inactive: 40%.

Turning to `COc1ccccc1-c1cc2nc(C)c(CCC(=O)Nc3ccc(Br)c(C)c3)c(C)n2n1`, the activation was inactive: -0.566%.

For `CCOc1ccccc1NC(=O)C1CCCN(S(=O)(=O)c2c(C)[nH]c(=O)[nH]c2=O)C1` (stereo unspecified), the activation is inactive: 0.388%.

As for `CCOc1ccc(/C=C(\C#N)c2nc3ccccc3c(=O)[nH]2)cc1OC`, the activation was inactive: -3.5%.

Consider `CCOC(=O)N1CCc2c(sc(NCc3cccc(F)c3)c2C(=O)Nc2ccccc2OCC)C1`, for which the activation is inactive: -14.8%.

As for `Cc1nc(N2C(=O)c3oc4ccccc4c(=O)c3C2c2cccc(OCCC(C)C)c2)sc1C` (stereo unspecified), the activation was inactive: -0.0647%.

Turning to `Cc1ccc(N2CC(NC(=O)Cc3cccs3)CC2=O)cc1C` (stereo unspecified), the activation is inactive: 0.381%.

With `O=C(CSc1nnc(-c2ccccc2)c(-c2ccccc2)n1)NC1CCCCC1`, the activation is inactive: -9.32%.

Take `CCOc1ccc(-c2nonc2NC(=O)c2oc3ccc(Br)cc3c2C)cc1`: the activation is inactive: -3.86%.

Take `O=C(O)c1cn(-c2ccc(F)cc2)c2cc(N3CCNCC3)c(F)cc2c1=O`: the activation is inactive: -18%.

On to `CCc1nc2ccc(C(=O)N3CCN(c4ccccc4)CC3)cc2nc1CC`, for which the activation was inactive: -33.1%.

On to `COc1ccc2c(c1)CCc1c(C(=O)Nc3ccc(F)c(Cl)c3)noc1-2`, for which the activation is inactive: 6.03%.

As for `COC(=O)c1nnn(CC(=O)NC(=O)Nc2cccc(C)c2C)c1C(=O)OC`, the activation is inactive: -8.14%.

In the case of `COc1ccc(NC(=O)c2cc(S(=O)(=O)N3CCCCC3)cn2C)cc1Cl`, the activation is inactive: 1.48%.

Take `O=C(Nc1ccc(S(=O)(=O)N2CCCCC2c2cccnc2)cc1)c1ccc(F)cc1` (stereo unspecified): the activation was inactive: 32.2%.

With `CN(C)c1ccc(-c2noc(C3CC(=O)N(c4ccc5c(c4)OCCO5)C3)n2)cc1` (stereo unspecified), the activation was inactive: -0.164%.

For the compound `O=C(Nc1ccc(Cl)cc1)c1cc2c(Cl)nc3ccccc3c2s1`, the activation was inactive: 4.05%.

Consider `Cc1cccc(N(C)C(=O)c2cc(S(=O)(=O)N3CCCCC3)c[nH]2)c1`, for which the activation was inactive: -2.08%.

As to `CCc1nnc2c3ccccc3nc(Nc3ccc(F)c(Cl)c3)n12`, the activation was inactive: 48%.

Turning to `CCCC(CCC)C(=O)Nc1nnc2n1CCS2`, the activation was inactive: 31.9%.

For the compound `COC(=O)CSc1nc2sc3c(c2c(=O)n1Cc1ccccc1)CCC(C(C)(C)C)C3` (stereo unspecified), the activation was inactive: -19.6%.

Take `COc1cc(C(=O)OCCCN2CCCN(CCCOC(=O)c3cc(OC)c(OC)c(OC)c3)CC2)cc(OC)c1OC`: the activation is inactive: 38.1% and inactive: -9.64%.

In the case of `COc1ccccc1C(=O)N1c2ccccc2C(C)(c2ccc(Cl)cc2)CC1(C)C` (stereo unspecified), the activation was inactive: -23.7%.

On to `COC(=O)C1=C(C)NC(C)=C([N+](=O)[O-])C1c1ccccc1C(F)(F)F` (stereo unspecified), for which the activation is inactive: -11.7%.

Consider `CCN(Cc1ccccc1)C(=O)CN1C(=O)CSc2ccc(S(=O)(=O)N(CC)CC)cc21`, for which the activation was inactive: -38.8%.

Turning to `COc1ccc(-c2c3c(nc4sc(C(=O)Nc5ccccc5F)c(N)c24)CC(C)(C)CC3=O)cc1`, the activation was inactive: 9.11%.

As to `CCc1ccc(CNC(=O)c2nn(-c3ccc(OC)c(Cl)c3)c(=O)c3c2c2ccccc2n3C)cc1`, the activation was inactive: 1.71%.

In the case of `CCOc1ccccc1NC(=O)CN1C(=O)COc2ccc(S(=O)(=O)Nc3ccccc3)cc21`, the activation was inactive: -7.41%.

As for `COc1ccc(-c2nn(CC(=O)NCc3ccccc3)c3c2cnc2ccc(F)cc23)cc1`, the activation is inactive: -5.71%.

Consider `Cc1ccc(-c2nc3nc(C)cc(N4CCN(c5cccc(C)c5)C(C)C4)n3n2)cc1` (stereo unspecified), for which the activation is inactive: -1.77%.

For the compound `O=C(Cn1c(=O)nc(-c2ccccc2F)c2cc(Cl)ccc21)Nc1ccccc1C(F)(F)F`, the activation was inactive: -15.9%.

Turning to `CCCCN(C)CCCNC(=O)CN1C(=O)CSc2ccc(S(=O)(=O)N3CCOCC3)cc21`, the activation was inactive: -10.6%.

For `CCCCNC(=O)Cn1ncc2c(C)n(Cc3cccc(Cl)c3)c(C)c2c1=O`, the activation is inactive: 5.32%.

For `O=C(NCc1cccs1)c1nn(-c2ccccc2F)nc1CO`, the activation was inactive: -9.64%.

Consider `COc1cc2oc(=O)c(CC(=O)NCCc3ccccc3F)c(C)c2cc1OC`, for which the activation is active: 77%.

As for `Cc1ccc(NC(=O)C2CCCN(S(=O)(=O)c3ccc4[nH]c(=O)ccc4c3)C2)cc1C` (stereo unspecified), the activation is inactive: -8.52%.

`CCc1nn(CC(=O)N2CCN(c3cc(C)ccc3C)CC2)c(=O)c2cc3occc3n12`: the activation is inactive: 7.98%.

Consider `CC1=C(c2ccc(C)c(C)c2)S(=O)(=O)N=C1N1CCC(C(=O)Nc2ccc(Cl)cc2)CC1`, for which the activation is inactive: 16.2%.

Take `O=S(=O)(Nc1ccc(-c2ccc(N3CCCCCC3)nn2)cc1)c1cccc(C(F)(F)F)c1`: the activation was inactive: -24.4%.

As to `COc1ccc(CCNc2nc(SCc3ccc(F)cc3)nc3ccccc23)cc1OC`, the activation was inactive: -21.4%.

Consider `N#Cc1ccc(NC(=O)c2cc(-c3cccc(Cl)c3)on2)cc1`, for which the activation is inactive: -2%.

On to `CCc1ccc(-c2nc(SCC(=O)NCC3CCCO3)c(-c3ccc(F)cc3)[nH]2)cc1` (stereo unspecified), for which the activation was inactive: -17.1%.

Regarding `CNC(=O)c1ccc(CSc2nc3cccnc3n2Cc2cccc(F)c2)cc1`, the activation is inactive: 18.6%.

On to `Fc1ccccc1N1CCN(c2ncc3c(n2)CCN(Cc2ccc(Br)s2)C3)CC1`, for which the activation was inactive: -9.67%.

For `Cc1ccc(C)c(NC(=O)N2CCc3cc(S(=O)(=O)N4CCC(C)CC4)ccc32)c1`, the activation was inactive: -25%.

`Cc1ccc2nc(-c3cccc(Cl)c3)c(Nc3ccc4c(c3)OCO4)n2c1`: the activation was inactive: -0.632%.

Take `C=CCc1ccccc1OCCn1c(C2CC(=O)N(Cc3ccc(F)cc3)C2)nc2ccccc21` (stereo unspecified): the activation was inactive: -24.1%.

For the compound `CC(Oc1ccccc1)C(=O)OCc1cc(=O)n2nc(C(C)C)sc2n1` (stereo unspecified), the activation was inactive: 11.2%.

`COc1ccccc1CCNC(=O)C(=O)NCC(c1cccs1)S(=O)(=O)c1ccc(F)cc1` (stereo unspecified): the activation is inactive: -1.89%.

Turning to `O=C(Nc1cccc(-c2nc3ccccc3[nH]2)c1)c1ccccc1F`, the activation is inactive: 4.18%.

For the compound `Cc1ccsc1CN(C(=O)c1ccc(Br)cc1)C1CCS(=O)(=O)C1` (stereo unspecified), the activation is inactive: -12.6%.

As for `Cc1ccc(NC(=O)N2CCN3CCCCC3C2)cc1F` (stereo unspecified), the activation was inactive: 4.89%.

`COc1ccccc1CNC(=O)c1ccc2c(c1)nnn2C1CCCC1`: the activation is inactive: -9.96%.

Regarding `CCc1ccc(S(=O)(=O)c2nnn3c2nc(NCc2cccc(OC)c2)c2cc(Cl)ccc23)cc1`, the activation was inactive: -6.82%.
